Results from the GPR68 mutational scans of Howard et al. (2025).
Scores with a large standard error are left out. Two further conditions of the source, in which the scores hardly spread, are not listed. Read del as a deletion of the residues named and ins as an insertion between two positions. For some of these results: The concentration of ogerin is not given here.

B1: GPR68, Q15743 (parent)
chain: MGNITADNSSMSCTIDHTIHQTLAPVVYVTVLVVGFPANCLSLYFGYLQIKARNELGVYLCNLTVADLFYICSLPFWLQYVLQHDNWSHGDLSCQVCGILLYENIYISVGFLCCISVDRYLAVAHPFRFHQFRTLKAAVGVSVVIWAKELLTSIYFLMHEEVIEDENQHRVCFEHYPIQAWQRAINYYRFLVGFLFPICLLLASYQGILRAVRRSHGTQKSRKDQIQRLVLSTVVIFLACFLPYHVLLLVRSVWEASCDFAKGVFNAYHFSLLLTSFNCVADPVLYCFVSETTHRDLARLRGACLAFLTCSRTGRAREAYPLGAPEASGKSGAQGEEPELLTKLHPAFQTPNSPGSGGFPTGRLA

Columns and labels:
[1] = variants of: B1; assay: cAMP reporter score (Enrich2 score, wild type = 0); higher = more signal; HEK293T, FACS bins
[2] = variants of: B1; assay: surface expression score (Enrich2 score, wild type = 0); higher = more signal; HEK293T, FACS bins

Variant | cAMP reporter score ([1]; pH 5.5) | cAMP reporter score ([1]; pH 6) | cAMP reporter score ([1]; pH 6, modulator: ogerin) | cAMP reporter score ([1]; pH 6.5, modulator: ogerin) | surface expression score [2]
V250_R251insGSG | -1.62 | -1.1 | -1.46 | -1.45 | -1.85
L249_V250insGS | -1.03 | -0.897 | -1.53 | -1.27 | -1.96
MGNITADNSSMSCTIDHTIHQTLAPVVYVTVLVVGFPANCLSLYFGYLQIKARNELGVYLCNLTVADLFYICSLPFWLQYVLQHDNWSHGDLSCQVCGILLYENIYISVGFLCCISVDRYLAVAHPFRFHQFRTLKAAVGVSVVIWAKELLTSIYFLMHEEVIEDENQHRVCFEHYPIQAWQRAINYYRFLVGFLFPICLLLASYQGILRAVRRSHGTQKSRKDQIQRLVLSTVVIFLACFLPYHVLLLVREVWEASCDFAKGVFNAYHFSLLLTSFNCVADPVLYCFVSETTHRDLARLRGACLAFLTCSRTGRAREAYPLGAPEASGKSGAQGEEPELLTKLHPAFQTPNSPGSGGFPTGRLA [S252E] | -1.15 | -1.13 | -1.58 | -1.3 | -1.62
MGNITADNSSMSCTIDHTIHQTLAPVVYVTVLVVGFPANCLSLYFGYLQIKARNELGVYLCNLTVADLFYICSLPFWLQYVLQHDNWSHGDLSCQVCGILLYENIYISVGFLCCISVDRYLAVAHPFRFHQFRTLKAAVGVSVVIWAKELLTSIYFLMHEEVIEDENQHRVCFEHYPIQAWQRAINYYRFLVGFLFPICLLLASYQGILRAVRRSHGTQKSRKDQIQRLVLSTVVIFLACFLPYHVLLLVRAVWEASCDFAKGVFNAYHFSLLLTSFNCVADPVLYCFVSETTHRDLARLRGACLAFLTCSRTGRAREAYPLGAPEASGKSGAQGEEPELLTKLHPAFQTPNSPGSGGFPTGRLA [S252A] | 0.532 | 2.19 | 0.008 | 2.26 | -1.22
MGNITADNSSMSCTIDHTIHQTLAPVVYVTVLVVGFPANCLSLYFGYLQIKARNELGVYLCNLTVADLFYICSLPFWLQYVLQHDNWSHGDLSCQVCGILLYENIYISVGFLCCISVDRYLAVAHPFRFHQFRTLKAAVGVSVVIWAKELLTSIYFLMHEEVIEDENQHRVCFEHYPIQAWQRAINYYRFLVGFLFPICLLLASYQGILRAVRRSHGTQKSRKDQIQRLVLSTVVIFLACFLPYHVLLLVRCVWEASCDFAKGVFNAYHFSLLLTSFNCVADPVLYCFVSETTHRDLARLRGACLAFLTCSRTGRAREAYPLGAPEASGKSGAQGEEPELLTKLHPAFQTPNSPGSGGFPTGRLA [S252C] | 0.33 |  | 0.025 | 0.927 | -1.74
MGNITADNSSMSCTIDHTIHQTLAPVVYVTVLVVGFPANCLSLYFGYLQIKARNELGVYLCNLTVADLFYICSLPFWLQYVLQHDNWSHGDLSCQVCGILLYENIYISVGFLCCISVDRYLAVAHPFRFHQFRTLKAAVGVSVVIWAKELLTSIYFLMHEEVIEDENQHRVCFEHYPIQAWQRAINYYRFLVGFLFPICLLLASYQGILRAVRRSHGTQKSRKDQIQRLVLSTVVIFLACFLPYHVLLLVRFVWEASCDFAKGVFNAYHFSLLLTSFNCVADPVLYCFVSETTHRDLARLRGACLAFLTCSRTGRAREAYPLGAPEASGKSGAQGEEPELLTKLHPAFQTPNSPGSGGFPTGRLA [S252F] | -1.22 |  | -0.71 | -1.39 | -1.88
L247_L248del | -1.36 | -0.496 | -1.47 | -1.07 | -2.58
L249_R251del | -2.27 | -1.2 |  | -1.45 | -2.74
